Laboratory results from the supplement of paper PMC11741623.
The list shows a part of the results. Interaction screen of human proteins with wild-type SARS-CoV-2 proteins by split-DHFR complementation in yeast, 1 µg/mL methotrexate. Value = fitness of the pair (three or more lineages) minus that of the viral protein without a human partner, on a scale set by negative (0) and fused positive (1) controls, mean of up to three cultures; higher = more likely to interact. Active = false discovery rate below 0.05 (one-sided t-test) in at least one culture. Nearly all pairs are not hits, and differences among them are mostly noise (correlation between cultures about 0.3); most hits were seen in one culture only. Human sequences are the Swiss-Prot entries looked up by gene name; the clone may be another isoform. NSP2 values were corrected by the authors for a growth advantage. Listed are human proteins with a hit and a random twelfth of the others.

Tests used:
Assay in all cases: yeast fitness gain over the viral ORF with no human partner (scaled fitness); higher = more likely to interact
SARS-CoV-2 E = molecular target: SARS-CoV-2 E
Experimental: (§1)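 Split mouse DHFR complementation in pooled diploid yeast: human ORFeome clones carry one fragment and viral ORFs the other; barcoded lineages compete in 1 µg/mL methotrexate and fitness is read by barcode sequencing in up to three cultures.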

SARS-CoV-2 M = molecular target: SARS-CoV-2 M
Experimental: as §1

SARS-CoV-2 N = molecular target: SARS-CoV-2 N
Experimental: as §1

SARS-CoV-2 NSP1 = molecular target: SARS-CoV-2 NSP1
Experimental: as §1

SARS-CoV-2 NSP10 = molecular target: SARS-CoV-2 NSP10
Experimental: as §1

SARS-CoV-2 NSP12 = molecular target: SARS-CoV-2 NSP12
Experimental: as §1

SARS-CoV-2 NSP13 = molecular target: SARS-CoV-2 NSP13
Experimental: as §1

SARS-CoV-2 NSP14 = molecular target: SARS-CoV-2 NSP14
Experimental: as §1

SARS-CoV-2 NSP15 = molecular target: SARS-CoV-2 NSP15
Experimental: as §1

SARS-CoV-2 NSP16 = molecular target: SARS-CoV-2 NSP16
Experimental: as §1

SARS-CoV-2 NSP2 = molecular target: SARS-CoV-2 NSP2
Experimental: as §1

SARS-CoV-2 NSP4 = molecular target: SARS-CoV-2 NSP4
Experimental: as §1

SARS-CoV-2 NSP5 = molecular target: SARS-CoV-2 NSP5
Experimental: as §1

SARS-CoV-2 NSP6 = molecular target: SARS-CoV-2 NSP6
Experimental: as §1

SARS-CoV-2 NSP7 = molecular target: SARS-CoV-2 NSP7
Experimental: as §1

SARS-CoV-2 NSP8 = molecular target: SARS-CoV-2 NSP8
Experimental: as §1

SARS-CoV-2 NSP9 = molecular target: SARS-CoV-2 NSP9
Experimental: as §1

SARS-CoV-2 ORF10 = molecular target: SARS-CoV-2 ORF10
Experimental: as §1

SARS-CoV-2 ORF3A = molecular target: SARS-CoV-2 ORF3A
Experimental: as §1

SARS-CoV-2 ORF3B = molecular target: SARS-CoV-2 ORF3B
Experimental: as §1

SARS-CoV-2 ORF6 = molecular target: SARS-CoV-2 ORF6
Experimental: as §1

SARS-CoV-2 ORF7A = molecular target: SARS-CoV-2 ORF7A
Experimental: as §1

SARS-CoV-2 ORF7B = molecular target: SARS-CoV-2 ORF7B
Experimental: as §1

SARS-CoV-2 ORF8 = molecular target: SARS-CoV-2 ORF8
Experimental: as §1

SARS-CoV-2 ORF9B = molecular target: SARS-CoV-2 ORF9B
Experimental: as §1

[1] = molecular target: SARS-CoV-2 ORF9Bwu (the 73-codon ORF)
Experimental: as §1

SARS-CoV-2 S = molecular target: SARS-CoV-2 S
Experimental: as §1

Measured: yeast fitness gain

B1: ANXA7, P20073 (protein)
chain: MSYPGYPPTGYPPFPGYPPAGQESSFPPSGQYPYPSGFPPMGGGAYPQVPSSGYPGAGGYPAPGGYPAPGGYPGAPQPGGAPSYPGVPPGQGFGVPPGGAGFSGYPQPPSQSYGGGPAQVPLPGGFPGGQMPSQYPGGQPTYPSQINTDSFSSYPVFSPVSLDYSSEPATVTQVTQGTIRPAANFDAIRDAEILRKAMKGFGTDEQAIVDVVANRSNDQRQKIKAAFKTSYGKDLIKDLKSELSGNMEELILALFMPPTYYDAWSLRKAMQGAGTQERVLIEILCTRTNQEIREIVRCYQSEFGRDLEKDIRSDTSGHFERLLVSMCQGNRDENQSINHQMAQEDAQRLYQAGEGRLGTDESCFNMILATRSFPQLRATMEAYSRMANRDLLSSVSREFSGYVESGLKTILQCALNRPAFFAERLYYAMKGAGTDDSTLVRIVVTRSEIDLVQIKQMFAQMYQKTLGTMIAGDTSGDYRRLLLAIVGQ
inactive: SARS-CoV-2 E -0.0635 | SARS-CoV-2 M 0.0762 | SARS-CoV-2 N 0.00795 | SARS-CoV-2 NSP1 = -0.015 | SARS-CoV-2 NSP10 = 0.0282 | SARS-CoV-2 NSP12 = 0.0299 | SARS-CoV-2 NSP13 = 0.0398 | SARS-CoV-2 NSP14 = 0.0768 | SARS-CoV-2 NSP15 = -0.0301 | SARS-CoV-2 NSP16 = -0.0283 | SARS-CoV-2 NSP2 = -0.0599 | SARS-CoV-2 NSP4 = 0.108 | SARS-CoV-2 NSP5 = 0.0876 | SARS-CoV-2 NSP6 = 0.11 | SARS-CoV-2 NSP7 = 0.018 | SARS-CoV-2 NSP8 = 0.0523 | SARS-CoV-2 NSP9 = -0.113 | SARS-CoV-2 ORF10 = -0.0175 | SARS-CoV-2 ORF3A 0.000427 | SARS-CoV-2 ORF3B 0.00838 | SARS-CoV-2 ORF6 = -0.00566 | SARS-CoV-2 ORF7A -0.0199 | SARS-CoV-2 ORF7B 0.0075 | SARS-CoV-2 ORF8 = 0.0533 | SARS-CoV-2 ORF9B 0.0604 | [1] -0.0275 | SARS-CoV-2 S 0.0409

B2: OPALIN, Q96PE5 (protein)
chain: MSFSLNFTLPANTTSSPVTGGKETDCGPSLGLAAGIPLLVATALLVALLFTLIHRRRSSIEAMEESDRPCEISEIDDNPKISENPRRSPTHEKNTMGAQEAHIYVKTVAGSEEPVHDRYRPTIEMERRRGLWWLVPRLSLE
active: SARS-CoV-2 ORF7B 0.39
inactive: SARS-CoV-2 E -0.0413 | SARS-CoV-2 M 0.0183 | SARS-CoV-2 N 0.0375 | SARS-CoV-2 NSP1 = 0.0479 | SARS-CoV-2 NSP10 = -0.0181 | SARS-CoV-2 NSP12 = 0.0528 | SARS-CoV-2 NSP13 = 0.00241 | SARS-CoV-2 NSP14 = 0.0303 | SARS-CoV-2 NSP15 = 0.0759 | SARS-CoV-2 NSP16 = 0.0263 | SARS-CoV-2 NSP2 = -0.0308 | SARS-CoV-2 NSP4 = 0.325 | SARS-CoV-2 NSP5 = 0.0111 | SARS-CoV-2 NSP6 = 0.0277 | SARS-CoV-2 NSP7 = -0.00648 | SARS-CoV-2 NSP8 = 0.0295 | SARS-CoV-2 NSP9 = -0.0208 | SARS-CoV-2 ORF10 = 0.0443 | SARS-CoV-2 ORF3A -0.0511 | SARS-CoV-2 ORF3B 0.0161 | SARS-CoV-2 ORF6 = -0.0158 | SARS-CoV-2 ORF7A 0.175 | SARS-CoV-2 ORF8 = 0.0376 | SARS-CoV-2 ORF9B 0.0243 | [1] -0.0374 | SARS-CoV-2 S -0.0304
